Experimental data published in ChEMBL document CHEMBL4888484, “Replenishing the malaria drug discovery pipeline: Screening and hit evaluation of the MMV Hit Generation Library 1 (HGL1) against asexual blood stage Plasmodium falciparum ,using a nano luciferase reporter read-out” (2022).
The whole screen tested about 150,000 compounds, of which about 540 (0.36%) showed an effect of 50% or more. The list shows a part of the results.

What follows are compounds tested on Plasmodium falciparum (assay: Primary screen in NF54 nanoGlo assay, in single point, at 2uM, 72h; a lower Z score goes with more inhibition). Details: timepoint 72 hour.
Assay type: functional, Erythrocyte

First: Cc1noc(-c2ccc(S(=O)(=O)NCCOc3ccccc3F)o2)c1C
Second: Cc1noc(-c2ccccc2Cl)c1C(=O)N[C@@H](C)c1ccccc1
The “% Inhibition” value of the first is higher: 2% for the first, -9% for the second.

Going from `CCOC[C@H]1CCN(C(=O)c2coc3ccccc23)C1` to `Cc1ccc(F)c(CC(=O)N2CCO[C@@H](COCC3CC3)C2)c1`, the “% Inhibition” value falls from 4% to 2%.

First: CC(C)[C@H]1CN(C(=O)Nc2ccc(F)cc2F)C[C@@H]1N(C)C
Second: Cc1ncccc1C(=O)Nc1ccncc1C(=O)C(C)C
The “% Inhibition” value of the first is lower: -6% for the first, 11% for the second.

`CC(C)(C)OC(=O)NCc1ccc(C#N)c(F)c1` and `Cc1nnc(CNC(=O)c2ccc(OC(C)C)cc2Cl)s1` are the same in “% Inhibition” value: -2% for the first, -2% for the second.

Going from `O=C(NS(=O)(=O)CC1CCOCC1)c1conc1-c1ccc(Cl)cc1` to `O=C([C@@H]1CN(S(=O)(=O)c2ccccc2Cl)CCO1)N1CCC(Oc2ccc(Cl)cn2)CC1`, the “% Inhibition” value rises from -14% to 1%.

First: Cc1ccc(-c2ccc(=O)n(CC(=O)NC[C@H]3CCCO3)n2)c(C)c1
Second: Cc1ccc(NC(=O)C[C@H]2COc3ccc(Cl)cc3NC2=O)cc1C
The “% Inhibition” value of the first is higher: 0% for the first, -14% for the second.

Going from `Cc1ncc(C(=O)N[C@H]2CC23CCOCC3)n1C` to `Cc1ccc(CNC(=O)N2CCCC3(CCOCC3)C2)cc1`, the “% Inhibition” value rises from -10% to -8%.

First: O=C(Nc1nc(-c2ccccc2)cs1)C1CC2C=CC1C2 (stereo not drawn)
Second: CN(C(=O)[C@@H]1C[C@H]1c1cnn(C)c1)c1cccc2ncccc12
The “% Inhibition” value of the first is higher: 8% for the first, -31% for the second.

First: Cc1cccc(NC(=O)N2CCC[C@H](Cn3c(C4CC4)nc4cccnc43)C2)c1C
Second: Cc1cc(Cl)c2ccccc2c1NC(=O)NC1CCN2CCCCC12 (stereo not drawn)
The “% Inhibition” value of the first is lower: -15% for the first, -4% for the second.

Compared with `C[C@@H](CNC(=O)COC1CCCC1)Oc1ccccc1`, `COc1ccc(C(=O)N2CCCC2)c(OC2CCN([C@@H](C)CCc3ccccc3)CC2)c1` is lower in “% Inhibition” value: -5% for the first, -10% for the second.

First: Cc1cc(C)cc(C(=O)N2CCN3CCOC[C@]3(CO)C2)c1
Second: CCOC(=O)[C@]1(F)CN(C(=O)c2nc(C)oc2C)CC12COC2
The “% Inhibition” value of the first is lower: -19% for the first, -6% for the second.

Going from `Cc1nnc(NC2CCCCCCC2)[nH]c1=O` to `CN(C(=O)c1cnccn1)C1CCCCCC1`, the “% Inhibition” value rises from -1% to 0%.

Going from `CCOC(=O)c1[nH]c(CN(Cc2ccc(OC)cc2)S(=O)(=O)c2ccc(Cl)cc2)c(C)c1C` to `CCOC(=O)N1CCN(C(=O)c2cccn3c(=O)c4ccc(Cl)cc4nc23)CC1`, the “% Inhibition” value falls from 2% to -3%.

Compared with `CC(=O)c1cccc(NC(=O)Cn2c(=O)n(CCc3ccccc3)c(=O)c3ccccc32)c1`, `CN1C[C@@H](Cn2cnc(-c3ccccc3)c2CCc2ccccc2)CC1=O` is lower in “% Inhibition” value: 36% for the first, -13% for the second.

Compared with `CC(C)(C)C1CCC(CC(=O)O)(n2cnnn2)CC1` (stereo not drawn), `CC(C)(C)CC(=O)NCC(=O)N1CCCCCCC1` is lower in “% Inhibition” value: 0% for the first, -3% for the second.

`O=C(c1cc(Cl)cc(Cl)c1)N1CCN(c2nc(CN3CCN(c4ccccc4F)CC3)cc(=O)[nH]2)CC1` and `CC(C)(C)c1c(Cl)c(O)c(-c2ccccc2)c(=O)n1-c1ccccc1` are the same in “% Inhibition” value: -5% for the first, -5% for the second.

Compared with `CCN(Cc1ncc(C)o1)c1cccc(CO)c1`, `Cc1cccc2oc(CNC(=O)CCn3cnnc3)nc12` is higher in “% Inhibition” value: -15% for the first, -11% for the second.

Going from `CC1NC(=O)CCC1NC(=O)N1CCCC1(C)C` (stereo not drawn) to `C=CCN1C[C@H](C)N(C(=O)CN2C(=O)CN(C)C2=O)C[C@@H]1C`, the “% Inhibition” value rises from -7% to 3%.

Going from `Cc1nc(Nc2ccc(F)cc2)nc2c1nnn2-c1ccc(F)cc1` to `O=S(=O)(Nc1ccc(Br)c(C(F)(F)F)c1)c1cccc(-n2cnnn2)c1`, the “% Inhibition” value falls from 28% to -2%.

Going from `CCOCCNC(=O)c1cn2cc(-c3ccccc3Cl)n(C)c(=O)c2n1` to `O=C(NC1CC1)c1cc(=O)c(OCc2ccccc2Cl)c[nH]1`, the “% Inhibition” value falls from -4% to -8%.

Going from `OCCN(CCO)c1ccc(C(c2ccc(Cl)cc2)c2ccc(N(CCO)CCO)cc2Cl)c(Cl)c1` to `Brc1ccc(-c2noc(-c3ccccc3-c3ccccc3)n2)cc1`, the “% Inhibition” value falls from 1% to -17%.

Compared with `Cc1cccc(-c2nsc3c(=O)n(CC(=O)Nc4ccc(C)c(Cl)c4)cnc23)c1`, `CNC(=O)c1noc(CN2CC[C@@H]3OCc4cccc(c4)Oc4cc(ccc4C)C(=O)N(C)CC(=O)N[C@@H]3C2)n1` is lower in “% Inhibition” value: -5% for the first, -6% for the second.

Compared with `CCc1nnc(NC(=O)[C@H]2CCCN(c3ncnc4onc(C)c34)C2)s1`, `CCc1nc2c(c3n[nH]c(=O)n13)CCC2` is lower in “% Inhibition” value: -3% for the first, -5% for the second.

Compared with `CC(=O)c1c(C)[nH]c(C(=O)N(C)Cc2nccn2C)c1C(C)C`, `CN(CCc1noc(C(F)(F)F)n1)C(=O)[C@H]1CCOc2ccccc2C1` is lower in “% Inhibition” value: 1% for the first, -1% for the second.

Compared with `Cc1nc(C(F)(F)F)ccc1-c1csc(N)n1`, `O=C(c1cscc1C(F)(F)F)N1CC(CCO)C1` is lower in “% Inhibition” value: -10% for the first, -11% for the second.

`O=S(=O)(CC1CCCCC1)NCCN1CC2CCC(C1)O2` and `CC(NC(=O)N(C1CC1)C(C)C1CC1)c1csc(C2CC2)n1` (stereo not drawn) are the same in “% Inhibition” value: -8% for the first, -8% for the second.

Going from `CN(Cc1cccc(C#N)c1)CN1C(=O)NC(C2CC2)(C2CC2)C1=O` to `N#CC1(C#N)[C@H](C(N)=O)[C@H]1c1ccccc1`, the “% Inhibition” value falls from -1% to -9%.

Going from `Cc1noc(-c2ccc(S(=O)(=O)NCCOc3ccccc3F)o2)c1C` to `Cc1noc(-c2ccccc2Cl)c1C(=O)N[C@@H](C)c1ccccc1`, the Z score rises from -0.29 to 1.22.

Compared with `CCOC[C@H]1CCN(C(=O)c2coc3ccccc23)C1`, `Cc1ccc(F)c(CC(=O)N2CCO[C@@H](COCC3CC3)C2)c1` is higher in Z score: -0.63 for the first, -0.37 for the second.

First: CC(C)[C@H]1CN(C(=O)Nc2ccc(F)cc2F)C[C@@H]1N(C)C
Second: Cc1ncccc1C(=O)Nc1ccncc1C(=O)C(C)C
The Z score of the first is higher: 1.06 for the first, -1.35 for the second.

First: CC(C)(C)OC(=O)NCc1ccc(C#N)c(F)c1
Second: Cc1nnc(CNC(=O)c2ccc(OC(C)C)cc2Cl)s1
The Z score of the first is lower: 0.32 for the first, 0.34 for the second.

Going from `O=C(NS(=O)(=O)CC1CCOCC1)c1conc1-c1ccc(Cl)cc1` to `O=C([C@@H]1CN(S(=O)(=O)c2ccccc2Cl)CCO1)N1CCC(Oc2ccc(Cl)cn2)CC1`, the Z score falls from 1.36 to -0.16.

Compared with `Cc1ccc(-c2ccc(=O)n(CC(=O)NC[C@H]3CCCO3)n2)c(C)c1`, `Cc1ccc(NC(=O)C[C@H]2COc3ccc(Cl)cc3NC2=O)cc1C` is higher in Z score: 0.08 for the first, 1.7 for the second.

Compared with `Cc1ncc(C(=O)N[C@H]2CC23CCOCC3)n1C`, `Cc1ccc(CNC(=O)N2CCCC3(CCOCC3)C2)cc1` is higher in Z score: 0.99 for the first, 1.07 for the second.

First: O=C(Nc1nc(-c2ccccc2)cs1)C1CC2C=CC1C2 (stereo not drawn)
Second: CN(C(=O)[C@@H]1C[C@H]1c1cnn(C)c1)c1cccc2ncccc12
The Z score of the first is lower: -1.04 for the first, 3.69 for the second.

Going from `Cc1cccc(NC(=O)N2CCC[C@H](Cn3c(C4CC4)nc4cccnc43)C2)c1C` to `Cc1cc(Cl)c2ccccc2c1NC(=O)NC1CCN2CCCCC12` (stereo not drawn), the Z score falls from 2.31 to 0.82.

Compared with `C[C@@H](CNC(=O)COC1CCCC1)Oc1ccccc1`, `COc1ccc(C(=O)N2CCCC2)c(OC2CCN([C@@H](C)CCc3ccccc3)CC2)c1` is higher in Z score: 0.54 for the first, 1.52 for the second.

Compared with `Cc1cc(C)cc(C(=O)N2CCN3CCOC[C@]3(CO)C2)c1`, `CCOC(=O)[C@]1(F)CN(C(=O)c2nc(C)oc2C)CC12COC2` is lower in Z score: 2.05 for the first, 0.69 for the second.

Going from `Cc1nnc(NC2CCCCCCC2)[nH]c1=O` to `CN(C(=O)c1cnccn1)C1CCCCCC1`, the Z score falls from 0.19 to 0.01.

Compared with `CCOC(=O)c1[nH]c(CN(Cc2ccc(OC)cc2)S(=O)(=O)c2ccc(Cl)cc2)c(C)c1C`, `CCOC(=O)N1CCN(C(=O)c2cccn3c(=O)c4ccc(Cl)cc4nc23)CC1` is higher in Z score: -0.19 for the first, 0.4 for the second.

Compared with `CC(=O)c1cccc(NC(=O)Cn2c(=O)n(CCc3ccccc3)c(=O)c3ccccc32)c1`, `CN1C[C@@H](Cn2cnc(-c3ccccc3)c2CCc2ccccc2)CC1=O` is higher in Z score: -4.11 for the first, 1.65 for the second.

Compared with `CC(C)(C)C1CCC(CC(=O)O)(n2cnnn2)CC1` (stereo not drawn), `CC(C)(C)CC(=O)NCC(=O)N1CCCCCCC1` is higher in Z score: -0.02 for the first, 0.47 for the second.

First: O=C(c1cc(Cl)cc(Cl)c1)N1CCN(c2nc(CN3CCN(c4ccccc4F)CC3)cc(=O)[nH]2)CC1
Second: CC(C)(C)c1c(Cl)c(O)c(-c2ccccc2)c(=O)n1-c1ccccc1
The Z score of the first is higher: 0.74 for the first, 0.7 for the second.

First: CCN(Cc1ncc(C)o1)c1cccc(CO)c1
Second: Cc1cccc2oc(CNC(=O)CCn3cnnc3)nc12
The Z score of the first is higher: 1.37 for the first, 1.24 for the second.

Going from `CC1NC(=O)CCC1NC(=O)N1CCCC1(C)C` (stereo not drawn) to `C=CCN1C[C@H](C)N(C(=O)CN2C(=O)CN(C)C2=O)C[C@@H]1C`, the Z score falls from 0.93 to -0.68.

Going from `Cc1nc(Nc2ccc(F)cc2)nc2c1nnn2-c1ccc(F)cc1` to `O=S(=O)(Nc1ccc(Br)c(C(F)(F)F)c1)c1cccc(-n2cnnn2)c1`, the Z score rises from -3.75 to 0.21.

Compared with `CCOCCNC(=O)c1cn2cc(-c3ccccc3Cl)n(C)c(=O)c2n1`, `O=C(NC1CC1)c1cc(=O)c(OCc2ccccc2Cl)c[nH]1` is higher in Z score: 0.71 for the first, 0.98 for the second.

Going from `OCCN(CCO)c1ccc(C(c2ccc(Cl)cc2)c2ccc(N(CCO)CCO)cc2Cl)c(Cl)c1` to `Brc1ccc(-c2noc(-c3ccccc3-c3ccccc3)n2)cc1`, the Z score rises from -0.23 to 2.03.

`Cc1cccc(-c2nsc3c(=O)n(CC(=O)Nc4ccc(C)c(Cl)c4)cnc23)c1` and `CNC(=O)c1noc(CN2CC[C@@H]3OCc4cccc(c4)Oc4cc(ccc4C)C(=O)N(C)CC(=O)N[C@@H]3C2)n1` are the same in Z score: 0.8 for the first, 0.8 for the second.

Compared with `CCc1nnc(NC(=O)[C@H]2CCCN(c3ncnc4onc(C)c34)C2)s1`, `CCc1nc2c(c3n[nH]c(=O)n13)CCC2` is higher in Z score: 0.35 for the first, 0.57 for the second.

Compared with `CC(=O)c1c(C)[nH]c(C(=O)N(C)Cc2nccn2C)c1C(C)C`, `CN(CCc1noc(C(F)(F)F)n1)C(=O)[C@H]1CCOc2ccccc2C1` is higher in Z score: -0.12 for the first, 0.12 for the second.

Compared with `Cc1nc(C(F)(F)F)ccc1-c1csc(N)n1`, `O=C(c1cscc1C(F)(F)F)N1CC(CCO)C1` is higher in Z score: 1.13 for the first, 1.36 for the second.

First: O=S(=O)(CC1CCCCC1)NCCN1CC2CCC(C1)O2
Second: CC(NC(=O)N(C1CC1)C(C)C1CC1)c1csc(C2CC2)n1 (stereo not drawn)
The Z score of the first is higher: 1.03 for the first, 0.86 for the second.

Going from `CN(Cc1cccc(C#N)c1)CN1C(=O)NC(C2CC2)(C2CC2)C1=O` to `N#CC1(C#N)[C@H](C(N)=O)[C@H]1c1ccccc1`, the Z score rises from 0.22 to 1.45.
